Results taken from PubChem BioAssay AID485294 (National Center for Advancing Translational Sciences (NCATS), 2010).
Screen size: about 370,000 compounds; about 150 (0.041%) were called active. The shares of active, inactive and inconclusive entries below differ from those in the screen. The call rests on the fitted dose curve; in most records, active means well fitted inhibition curve with a large enough effect; inconclusive means small, poorly fitted or top-dose-only effect; inactive means flat fitted curve, though single readings scatter. No potency is given beside an inconclusive call; the fits are too rough.

These compounds were tested against Beta-lactamase (Escherichia coli (strain K12)) (UniProt P00811) (assay: qHTS Inhibitors of AmpC Beta-Lactamase (assay with detergent)). Conditions: AmpC hydrolysis of nitrocefin, absorbance 480 nm, 0.01% Triton; series mostly up to 114 µM.
Outline: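 20 mM phosphate pH 7.0 + 0.01% (detergent screen) or 0.0001% Triton X-100; 5.3 nM AmpC reagent; cpd preinc 15 min RT; nitrocefin (800 uM stock) to start; A480 q20 s × 4 min; Activity was normalised to no-enzyme and no-compound control wells.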
Further: nearly all actives have a fitted effect of over 25% in size.
Potency means the concentration at half of the fitted maximal effect; tags describe the fitted curve by direction and shape.

Chain of UniProt P00811 (P00811 whole entry, looked up): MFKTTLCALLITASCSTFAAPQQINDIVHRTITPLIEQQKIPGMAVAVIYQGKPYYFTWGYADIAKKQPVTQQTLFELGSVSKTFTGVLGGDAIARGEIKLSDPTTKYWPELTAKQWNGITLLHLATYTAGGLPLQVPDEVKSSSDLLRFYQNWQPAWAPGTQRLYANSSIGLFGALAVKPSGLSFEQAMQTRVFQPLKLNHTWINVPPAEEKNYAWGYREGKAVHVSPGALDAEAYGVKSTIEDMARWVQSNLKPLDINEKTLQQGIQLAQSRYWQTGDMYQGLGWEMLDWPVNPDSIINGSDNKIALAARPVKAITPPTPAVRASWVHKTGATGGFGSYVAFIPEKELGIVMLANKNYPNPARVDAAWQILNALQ

Compound	Potency
CCn1cc(CN2CCCC(C(=O)Nc3cccc(-c4cc5ccccc5[nH]4)c3)C2)c(C)n1 (stereo unspecified)	inactive
COc1ccc(S(=O)(=O)N2CCN(c3ncccn3)CC2)cc1[N+](=O)[O-]	inconclusive [inhibitor, full curve, poor fit]
O=C(CSc1nnc(-c2cccnc2)n1Cc1ccccc1)NCc1ccco1	inconclusive [inhibitor, full curve]
COc1ccc(/C=N/NC(=O)c2ccc(CN3C(=O)c4cccc5cccc3c45)cc2)cc1O	inactive
CC1(C)Cc2cccc(OCC(=O)Nc3ccccc3N3CCOCC3)c2O1	inconclusive [inhibitor, full curve]
COc1ccc(C2C(C(=O)OC3CCCCC3)=C(C)Nc3nnnn32)c(OC)c1OC (stereo unspecified)	inactive
O=C(Nc1cccc(F)c1)c1ccc(S(=O)(=O)N2CCCC2)cc1	inconclusive [inhibitor, full curve, poor fit]
COc1ccc(CC(=O)N2C[C@H]3C[C@@H](C2)c2cccc(=O)n2C3)cc1	inconclusive [inhibitor, partial curve]
COC(=O)c1c(NC(=O)CC2NCCNC2=O)sc2c1CCCC2 (stereo unspecified)	inconclusive [inhibitor, full curve, poor fit]
CN(C)CCNC(=O)c1ccc2nc(Cc3ccccc3)oc2c1	inactive
COCCN1C(=O)N[C@@H](c2ccc(Br)cc2)C(C(=O)OC)=C1C	inactive
Cc1ccc(NC(=O)c2ccc(CN3CCc4ccccc4C3)cc2)cc1	inconclusive [inhibitor, single point]
COc1ccc(CCNC(=O)C/C(C)=N/NC(=O)C2CCCCC2)cc1OC	inactive
O=C(NC1CCCC1)C(c1ccncc1)N(C(=O)c1ccco1)c1ccc(Cl)cc1 (stereo unspecified)	inconclusive [inhibitor, single point]
O=C1C(Cc2ccccc2)Nc2ncnc(N3CCN(c4ccccc4)CC3)c2N1Cc1ccc(Cl)cc1 (stereo unspecified)	inconclusive [inhibitor, full curve, poor fit]
CCCn1c(N)c(C(=O)CSc2nnc(-c3cccnc3)n2-c2ccc(C)cc2C)c(=O)[nH]c1=O	inconclusive [inhibitor, partial curve]
Cc1ccc(-c2nn(CC(=O)NC(C)c3ccccc3)c(=O)c3ccccc23)cc1 (stereo unspecified)	inconclusive [inhibitor, single point]
CN1CCN(NC(=S)Nc2ccc(Oc3ccccc3)cc2)CC1	inactive
CCC1CCCCN1S(=O)(=O)c1ccc2c(c1)CCN2C(=O)C1CCC1 (stereo unspecified)	inconclusive [inhibitor, full curve]
O=C(CSc1nnnn1-c1ccc(Cl)cc1)NC(=O)Nc1ccc2c(c1)OCCO2	inconclusive [inhibitor, single point]
Cc1ccc(/C=C2\SC(=S)N(CCCC(=O)Nc3nccs3)C2=O)cc1	inconclusive [inhibitor, single point]
COC(=O)c1c(NC(=O)COC(=O)c2ccccn2)sc(C)c1C	inconclusive [inhibitor, full curve, poor fit]

Compound	Potency
CC1CCCN(C(=O)c2ccc3ncsc3c2)C1 (stereo unspecified)	inconclusive [inhibitor, full curve, poor fit]
COc1cccc(/C=N/n2c(C)nc3ccccc3c2=O)c1O	inconclusive [inhibitor, partial curve, poor fit]
CCOC(=O)N1CCN(C(=O)CSc2ccc(-c3ccccc3OC)nn2)CC1	inconclusive [inhibitor, full curve]
CNc1c(C(=O)O)ccc2c1C(=O)c1ccccc1C2=O	inconclusive [inhibitor, full curve, poor fit]
CC(C)CNC(=O)C(=O)NCC1CCCN1S(=O)(=O)c1cccs1 (stereo unspecified)	inconclusive [inhibitor, partial curve, poor fit]
O=C(NCc1cccnc1)Nc1ccccc1F	inconclusive [inhibitor, single point]
CCOC(=O)C1CCN(C(=O)CN(c2ccc(Cl)c(C(F)(F)F)c2)S(C)(=O)=O)CC1	inconclusive [inhibitor, single point]
Cn1c(COc2ccccc2)nnc1SCC(=O)c1cccc([N+](=O)[O-])c1	inconclusive [inhibitor, full curve, poor fit]
NC(N)=N/N=C/c1ccccc1OC(F)F	inactive
CCc1cccc(C)c1NC(=O)CSc1nnc(-c2cc3cc(Br)ccc3o2)n1CC	inconclusive [inhibitor, partial curve, poor fit]
COc1ccc(NC(=O)Cn2nnc(C(=O)Nc3ccccc3C)c2N)cc1	inconclusive [inhibitor, single point]
CC(C)OP(=O)(OC(C)C)C(C)NC(=O)Cc1ccccc1 (stereo unspecified)	inconclusive [inhibitor, partial curve, poor fit]
Cn1c(SCc2cccc(Br)c2)nnc1-c1ccncc1	inconclusive [inhibitor, partial curve]
Cc1onc(-c2ccccc2Cl)c1C(N)=O	inactive
Cc1cccc(NS(=O)(=O)c2ccc3c(c2)n(C)c(=O)n3C)c1C	inactive
O=C(CN(CCc1ccccc1)C(=O)Cn1nnc(-c2cccs2)n1)NCc1ccco1	inconclusive [inhibitor, single point]
Cc1cc(C(=O)CCC(=O)N2CCN(S(=O)(=O)c3cccs3)CC2)c(C)s1	inconclusive [inhibitor, full curve, poor fit]
CCCCn1c(=O)c(C=Nc2ccc(Cl)cc2)c(O)n(Cc2ccco2)c1=O	inactive
CC1(c2ccccc2)NC(=O)N(CC(=O)Nc2ccccc2N2CCCC2)C1=O (stereo unspecified)	inactive
CCCCn1c(=O)[nH]c(=O)c2c1nc(COC(=O)c1c(C)noc1C)n2CCC	inconclusive [inhibitor, partial curve, poor fit]
CC(C)(C)NS(=O)(=O)c1ccc2c(c1)oc(=O)c1cc(S(=O)(=O)NC(C)(C)C)ccc12	inconclusive [inhibitor, partial curve]
CC(C)NCC(O)COC1C2CC3CC(C2)CC1C3 (stereo unspecified)	inactive

Compound	Potency
O=C(CCN1C(=O)/C(=C\c2ccccc2Cl)SC1=S)N1CCN(c2ccccc2)CC1	inconclusive [inhibitor, single point]
COc1ccc(Cl)cc1C(=O)OCC(=O)N(CC(C)C)c1c(N)n(Cc2ccccc2)c(=O)[nH]c1=O	inconclusive [inhibitor, single point]
COc1ccc(C(=O)N2CCN(CCNC(=O)C(=O)Nc3ccc(Br)cc3)CC2)cc1	inconclusive [inhibitor, full curve, poor fit]
Cc1cc(C(=O)Nc2sc(C)c(-c3ccc(F)cc3)c2C(N)=O)no1	inconclusive [inhibitor, partial curve, poor fit]
CCOc1ccc(/C=C(\C)C(=O)c2c(C)cc(C)[nH]c2=O)cc1	inconclusive [inhibitor, full curve, poor fit]
CC(C)(C)C(O)CN1CCCC1 (stereo unspecified)	inactive
CSc1ccc(C2C(C#N)=C(N)N(c3ccccc3)C3=C2C(=O)CCC3)cc1 (stereo unspecified)	inconclusive [inhibitor, full curve]
COc1ccc2nc(NC(=O)C3CCN(S(=O)(=O)c4cnc[nH]4)CC3)sc2c1	inconclusive [inhibitor, full curve, poor fit]
CC(Oc1ccccc1F)C(=O)NN (stereo unspecified)	active: 79.4 µM
O=C(NCc1ccco1)/C(=C/c1ccc(Cl)cc1)NC(=O)c1ccco1	inconclusive [inhibitor, single point]
Cc1ccccc1Nc1nc(N)nc(CN2CCN(C(=O)c3ccccc3)CC2)n1	inactive
COc1ccc(CCNS(=O)(=O)c2ccccc2[N+](=O)[O-])cc1OC	inconclusive [inhibitor, full curve, poor fit]
Cc1cc(CNC(=O)c2cccnc2Cl)c2ccccc2n1	inconclusive [inhibitor, partial curve, poor fit]
Cc1[nH]nc2ncc(C(=O)c3cc(Cl)cc(Cl)c3O)cc12	inconclusive [inhibitor, single point]
CCC(C(=O)Nc1cc(-c2cn3cccnc3n2)ccc1C)c1ccccc1 (stereo unspecified)	inactive
Cc1c(-c2ccn[nH]2)cc(NC(=O)c2ccc(Cl)cc2)c(=O)n1N	inconclusive [inhibitor, full curve]
COc1ccc(Nc2ncc(C(=O)Nc3ccc(F)cc3F)c3ccccc23)cc1	inactive
Cc1ccc(C)c(-c2cc(C(=O)Nc3nccs3)c3ccccc3n2)c1	inconclusive [inhibitor, full curve]
Cc1cc(=O)c2cc3nc(-c4cccnc4)oc3c(Br)c2o1	inactive
C/C=C(/C)C(=O)O[C@@H]1c2c(ccc3ccc(=O)oc23)O[C@@H]1C(C)(C)OC(=O)/C(C)=C\C	inconclusive [inhibitor, partial curve]
Nc1nc(NCC2CCCO2)nc(Nc2ccc(F)cc2)c1[N+](=O)[O-] (stereo unspecified)	inactive
CCOCCCNC(=O)C1c2cc(OC)c(OC)cc2C(=O)N2CCCCC12 (stereo unspecified)	inconclusive [inhibitor, full curve]
